The whole screen tested about 310,000 compounds, of which about 2,200 (0.71%) showed an effect of 50% or more. Effects have a minus sign here. The list shows a part of the results.
target: human ether-à-go-go-related gene (hERG) potassium channel (human, UniProt Q12809); experiment: primary screen, population patch clamp on CHO cells stably expressing hERG
Sequence (Q12809 whole entry, looked up): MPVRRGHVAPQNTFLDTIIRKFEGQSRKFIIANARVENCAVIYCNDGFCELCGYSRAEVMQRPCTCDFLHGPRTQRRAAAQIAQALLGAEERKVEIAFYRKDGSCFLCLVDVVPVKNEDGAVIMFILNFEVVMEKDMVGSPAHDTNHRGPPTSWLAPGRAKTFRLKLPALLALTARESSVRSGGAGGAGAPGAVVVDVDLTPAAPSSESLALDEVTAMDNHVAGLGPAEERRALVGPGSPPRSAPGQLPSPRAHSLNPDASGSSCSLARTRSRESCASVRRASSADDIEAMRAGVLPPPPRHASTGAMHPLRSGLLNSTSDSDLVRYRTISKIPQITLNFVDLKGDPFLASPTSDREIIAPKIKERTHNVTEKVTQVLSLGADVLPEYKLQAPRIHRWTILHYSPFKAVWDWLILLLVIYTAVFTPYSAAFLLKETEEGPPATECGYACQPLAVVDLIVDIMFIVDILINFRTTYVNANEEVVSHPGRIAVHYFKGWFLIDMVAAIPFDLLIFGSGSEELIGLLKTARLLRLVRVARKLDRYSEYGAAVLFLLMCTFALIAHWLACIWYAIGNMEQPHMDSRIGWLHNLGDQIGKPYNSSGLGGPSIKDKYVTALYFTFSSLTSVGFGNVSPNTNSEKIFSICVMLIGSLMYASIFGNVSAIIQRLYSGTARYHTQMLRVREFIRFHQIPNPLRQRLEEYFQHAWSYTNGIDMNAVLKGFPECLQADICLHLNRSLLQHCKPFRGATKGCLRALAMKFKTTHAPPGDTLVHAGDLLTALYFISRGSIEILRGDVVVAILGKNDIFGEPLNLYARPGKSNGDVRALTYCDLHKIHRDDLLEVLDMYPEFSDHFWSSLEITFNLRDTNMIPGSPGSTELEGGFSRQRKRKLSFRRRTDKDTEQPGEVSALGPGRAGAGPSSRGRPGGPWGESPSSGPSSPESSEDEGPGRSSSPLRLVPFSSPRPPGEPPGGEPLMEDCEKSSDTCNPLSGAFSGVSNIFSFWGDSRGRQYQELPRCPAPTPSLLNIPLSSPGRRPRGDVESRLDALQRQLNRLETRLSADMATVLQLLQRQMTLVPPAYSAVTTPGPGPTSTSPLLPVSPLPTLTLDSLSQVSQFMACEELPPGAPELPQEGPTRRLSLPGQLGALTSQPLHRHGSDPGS

Structure (SMILES)	hERG current change (%, negative = inhibition) at 1uM
Nc1nc(NCc2ccco2)nn1-c1ccccc1	12.2%
COC(=O)CC1C(=O)NCCN1C(=O)CSc1nnc(Nc2ccc(C)cc2)s1 (stereo not shown)	7.15%
C/C(=N/NC(=O)c1sc(NS(=O)(=O)c2ccccc2)nc1C)c1ccc(F)cc1	7.19%
O=C(NCC1CCCO1)C1CCCN(S(=O)(=O)c2cccc3nsnc23)C1 (stereo not shown)	10.3%
C=CCn1c(O)c(CN2CCN(Cc3ccccc3)CC2)c(C)c(C#N)c1=O	-8.67%
Cc1nn(C(C)C(=O)NCCCN2CCCCCC2)c(=O)c2c1sc1ccccc12 (stereo not shown)	3.67%
CC(=O)N1CCN(c2nc3cc4c(cc3nc2NS(=O)(=O)c2ccccc2)OCCO4)CC1	10.4%
Cc1ccc(NC(=O)Cn2nc(C)c3ccccc3c2=O)c(C)c1	17%
CCCCn1nc(C(=O)N(C)C2CCCCC2)c2ccccc2c1=O	0.346%
O=C(/C=C/c1ccccc1[N+](=O)[O-])NCCCN1CCCC1=O	18.1%
CC1=C(C(=O)OCC2CCCO2)C(c2cccc(C(F)(F)F)c2)C2=C(CC(c3ccco3)CC2=O)N1 (stereo not shown)	9.71%
CN1CCN(C(=O)/C(=C\c2ccc3c(c2)OCO3)NC(=O)c2cccs2)CC1	-75.6%
Cc1ccccc1-c1nnc(SCc2ccccc2F)o1	-8.44%
CC(C)CC(c1nnnn1C(C)(C)C)N1CCN(Cc2ccccc2)CC1.Cl (stereo not shown)	6.39%
CC(C)CCNC(=O)c1cccc(C(=O)NCCC(C)C)c1	16%
O=C(CSc1ccccc1)Nc1ccncc1	10.8%
CCCCCCN=C(C)c1ccccc1O	9.22%
CSc1cccc(NC(=O)c2cnn3ccccc23)c1	14.4%
CN1CCN(S(=O)(=O)c2ccc(NC(=O)Cc3cccs3)cc2)CC1	-0.519%
CCC1(C)Cc2c(sc3c2c(=O)n(-c2ccccc2)c(=O)n3C)CO1 (stereo not shown)	10.8%
CCOC(=O)N1CCN(C(=O)c2cccn3c(=O)c4cc(Br)ccc4nc23)CC1	-30.6%
NC(=O)C1CCN(C(=O)c2cc3ccccc3cc2O)CC1	5.46%

Structure (SMILES)	hERG current change (%, negative = inhibition) at 1uM
O=C(NCC1CCCO1)c1nn2cccnc2c1Cl (stereo not shown)	16%
CCOc1ccc(S(=O)(=O)N2CCCCC2)cc1NC(=O)CN1C(=O)NC(CC)(c2ccccc2)C1=O (stereo not shown)	10.5%
Cc1nc(-c2ccc(O)c(O)c2)cs1	1.64%
Cc1ccc(-c2ccc(/C=C(\C#N)C(=O)Nc3cc(C)nn3-c3ccccc3)o2)cc1	7%
CCOC(=O)CC1C(=O)NCCN1C(=O)c1sc2ccccc2c1Cl (stereo not shown)	18.9%
O=C(NCCO)c1ccc2c(c1)S(=O)(=O)c1ccccc1C2=O	1.72%
CNC(=O)c1c(C)nc(SCC(=O)NCc2ccc(OC)cc2)c(C#N)c1-c1ccco1	-7.83%
Cn1cc(CNC(=O)/C=C/c2ccc(Cl)cc2)cn1	11.2%
CCN(CC(=O)NCc1cccs1)C(=O)c1cccc(S(=O)(=O)NC)c1	14.1%
COc1ccc(Cn2cc(C(=O)c3ccccc3)c(=O)c3cc(OC)ccc32)cc1	-2.11%
CN(C)[C@@H]1C(=O)C(C(N)=O)=C(O)[C@@]2(O)C(=O)C3=C(O)c4c(O)cccc4[C@@](C)(O)[C@H]3[C@H](O)[C@@H]12	5.51%
Cc1cc(/C=C(/C#N)c2nc3ccccc3[nH]2)c(C)n1-c1ccccc1C(=O)O	17.3%
COC(=O)N(C)c1ccc(C(O)(C(=O)OC)C(F)(F)F)cc1 (stereo not shown)	1.43%
CSc1ccc(/C=N/n2nnnc2N)cc1	1.09%
O=C(COC(=O)c1ccc(Cl)c(S(=O)(=O)NCc2ccccc2)c1)NCC1CCCO1 (stereo not shown)	5.46%
CC(C)NC(=O)CC1OC(=O)c2ccccc21 (stereo not shown)	16.2%
N#CC1=C(N)N2C(=C(C#N)C1c1ccccc1)Sc1ccccc12 (stereo not shown)	7.56%
COc1ccc(/C=C/C(=O)c2ccc3c(c2)OCO3)c(OC)c1	3.45%
Cc1c(Cl)cnc(NC(=O)COC(=O)c2ccc3c(c2)OCO3)c1Cl	7%
CCCCCn1c(=O)c(C(=O)Nc2ccccc2S(N)(=O)=O)c(O)c2ccccc21	14.1%
COc1ccc(Br)cc1/C=N/NC(=O)CN1CCCCC1	4.9%
CCCN(CCC)C(=O)c1ccc2c(c1)OCO2	2.21%

Structure (SMILES)	hERG current change (%, negative = inhibition) at 1uM
CN(CC(=O)Nc1ccc([N+](=O)[O-])cc1Br)Cc1c(F)cccc1Cl	9.69%
N=c1nc(N2CCCCC2)cc(N)n1O	13.2%
CCOC(=O)c1ccc(NC(=S)N(CCCN2CCCCC2)Cc2ccco2)cc1	-71.3%
N#CC1(Cc2ccccc2Cl)c2ccccc2C=CN1C(=O)c1ccccc1 (stereo not shown)	17%
O=C(COC(=O)C1(c2ccc(F)cc2)CCCC1)N1CCc2ccccc21	7.76%
O=C(NCC1CCCO1)c1ccc(S(=O)(=O)N2CCCCC2)cc1 (stereo not shown)	4.44%
COc1ccc(C(c2nnnn2Cc2ccccc2)N2CCN(C(=O)c3ccco3)CC2)cc1OC.Cl (stereo not shown)	-7.96%
O=C(Cn1c2ccccc2c2nc3n(c(=O)c21)CCS3)Nc1ccccc1C(F)(F)F	9.51%
CCCn1nnc(NC(=O)COc2ccc(C3CCCCC3)cc2)n1	10.2%
NC(=O)c1oc2ccccc2c1NC(=O)C1COc2ccccc2O1 (stereo not shown)	13.7%
CCC(C)n1c(-c2ccco2)nc2nc3ccccc3nc21 (stereo not shown)	6.96%
CC(C)CCN(C(=O)C1CCCC1)c1c(N)n(Cc2ccccc2)c(=O)[nH]c1=O	5.93%
CCOC(=O)C1=C(O)C(=O)N(c2ccc(S(N)(=O)=O)cc2)C1c1ccccc1 (stereo not shown)	12.9%
Cc1cc(NC(=O)CN2C(=O)CC(c3ccco3)Sc3ccccc32)no1 (stereo not shown)	-17.8%
COc1ccc(Nc2cc(C)nc(N3CCN(C(=O)c4ccc5c(c4)OCO5)CC3)n2)cc1	7.75%
CC1N(C)c2cccc3cccc(c23)N1C	0.571%
CCn1c(COc2cccc(OC)c2)nnc1SCC(=O)Nc1cccc(OC)c1	-1.46%
O=C(O)c1ccc(NS(=O)(=O)c2ccc(NC(=O)c3ccccc3Cl)cc2)cc1	13.3%
O=C1Nc2cccnc2N(C(=O)CCl)c2ccccc21	13.1%
O=C(Nc1ccc(S(=O)(=O)N2CCOCC2)cc1)c1ccccc1Br	10.6%
Cc1ccc(OCC(=O)N2CCN(c3ccc([N+](=O)[O-])c(N4CCOCC4)c3)CC2)cc1	-3.05%
CCOC(=O)N(C)OC(=O)Nc1ccc(Cl)c(Cl)c1	-6%

Structure (SMILES)	hERG current change (%, negative = inhibition) at 1uM
O=[N+]([O-])c1ccccc1Oc1ccc(Cl)c2cccnc12	8.94%
CNC(=S)Nc1ccc(Nc2ccccc2)cc1	12.8%
O=C1/C(=C/Nc2cccc([N+](=O)[O-])c2)CCc2ccccc21	1.17%
CSc1nc2c(cc1C#N)C(=O)CC(C)(C)C2	-2.19%
CC(O)c1nc2ccccc2n1CCOc1ccccc1 (stereo not shown)	12.1%
Cc1cc(SCC(=O)Nc2cccc(S(=O)(=O)NC3=NCCCCC3)c2)c(C)cc1Br	2.94%
O=C(Cn1cnc2ccccc2c1=O)NCc1ccco1	19.9%
COc1ccc(CCC(=O)Nc2nnc(C(F)(F)F)s2)cc1	10.3%
CCc1ccc(NC(=O)C(=O)NCCN2CCN(S(C)(=O)=O)CC2)cc1	18.2%
COc1ccc(NC(=O)CSc2nnc(CNC(=O)c3cccs3)o2)c(OC)c1	12.1%
Cc1cc(C)n(CCNC(=O)CC2C(=O)NCCN2CC2CCCCC2)n1 (stereo not shown)	14.5%
CCC(=O)NC(c1ccc([N+](=O)[O-])cc1)c1c(O)ccc2ccccc12 (stereo not shown)	0.955%
Cc1ccccc1Cn1nc(C)c(NC(=O)C(F)(F)F)c1C	6.45%
Oc1ccc(C(=S)N2CCN(c3cccc(Cl)c3)CC2)cc1	13.9%
Cc1cc(C(=O)Nc2sc(C)c(C)c2C#N)c(C)o1	3.39%
CCOC(=O)C1CCN(C(=O)CC2C(=O)N(Cc3ccccc3)C(C)c3nc4ccccc4n32)CC1 (stereo not shown)	4.09%
CCOC(=O)c1cc(OC(=O)c2cccs2)n(-c2ccccc2)n1	4.26%
Cc1nnc(NC(=O)CSc2nccn2-c2ccc(F)cc2)s1	3.09%
O=C(Nc1nnc(-c2ccncc2)o1)c1ccc(Br)s1	10%
COC(=O)[C@@H]1CC[C@H](C)[C@@H](c2ccc(C)cc2)N1C(=O)c1ccc(/C=N/O[C@H](C)c2cn([C@@H]3COC[C@H]3O)nn2)cc1	1.12%
COc1ccc(CNCCC(c2ccc(OC(C)C)cc2)C(C)C)cc1OC (stereo not shown)	-43.2%
CSc1nsc(SCC(=O)Nc2ccccc2)n1	10.8%

Source: publication PMC4336329 (PLoS ONE, 2015)
